# Whole data set: some 110,000 compounds, median “z-score” near -0.1, cut for the highest 2% near 2. This is one part of the list. Active and inactive are the calls of the source.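 The calls were made as follows: active = z-score in the third read window above 3 or below -3; inactive = the rest.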
# Biological target: Metabotropic glutamate receptor 8 (Rattus norvegicus) (UniProt P70579)
# Assay: rat mGluR8 modulators via GIRK flux, primary screen, cell-based, thallium flux, HTS (AID 488969)
# Details: HEK293 rat mGluR8, GIRK (G protein-gated inwardly rectifying potassium channel) thallium flux, FluoZin2; at 10 µM; stronger effect = higher value; submaximal glutamate (EC20) added with thallium
# Sequence of UniProt P70579 (P70579 whole entry, looked up): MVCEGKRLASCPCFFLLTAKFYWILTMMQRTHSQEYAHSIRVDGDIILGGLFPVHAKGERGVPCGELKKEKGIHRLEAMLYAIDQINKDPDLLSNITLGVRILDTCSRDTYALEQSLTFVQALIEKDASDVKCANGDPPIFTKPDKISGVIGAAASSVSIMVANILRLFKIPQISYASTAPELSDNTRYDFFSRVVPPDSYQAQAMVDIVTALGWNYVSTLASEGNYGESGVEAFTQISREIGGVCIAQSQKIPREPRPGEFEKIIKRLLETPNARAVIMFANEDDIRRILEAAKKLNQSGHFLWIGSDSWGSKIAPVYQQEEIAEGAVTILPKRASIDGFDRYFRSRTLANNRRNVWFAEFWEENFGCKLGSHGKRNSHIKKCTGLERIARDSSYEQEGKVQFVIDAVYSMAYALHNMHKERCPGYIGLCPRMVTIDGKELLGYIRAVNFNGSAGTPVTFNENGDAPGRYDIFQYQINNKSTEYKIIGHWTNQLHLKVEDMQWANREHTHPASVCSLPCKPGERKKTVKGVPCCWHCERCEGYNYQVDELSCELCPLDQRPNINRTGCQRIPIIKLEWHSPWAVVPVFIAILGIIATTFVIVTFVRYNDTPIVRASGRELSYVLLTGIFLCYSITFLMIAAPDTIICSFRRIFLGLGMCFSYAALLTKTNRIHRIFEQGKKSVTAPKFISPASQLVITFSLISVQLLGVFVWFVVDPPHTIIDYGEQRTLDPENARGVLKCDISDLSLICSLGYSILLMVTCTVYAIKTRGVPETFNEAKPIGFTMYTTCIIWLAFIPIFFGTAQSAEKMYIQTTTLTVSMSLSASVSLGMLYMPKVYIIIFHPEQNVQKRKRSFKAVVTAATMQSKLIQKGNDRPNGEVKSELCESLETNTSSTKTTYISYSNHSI
row,Structure (SMILES),z-score
1,Cc1nnn(-c2nonc2N)c1C(=O)N/N=C/c1cccc2ccccc12,-0.569
2,CCOc1ccccc1NC(=O)CSCC(=O)Nc1ccccc1,0.882
3,Nc1nc(NC(=O)CCCC(=O)O)nn1-c1ccccc1,0.365
4,O=C(CSc1ccc2ccccc2c1)NC1CCCc2ccccc21 (stereo not given),-0.0812
5,Cc1cc(C)n(CC(=O)NC2CCCCC2)n1,0.0582
6,CCCN(CCC)C1Sc2ccc(C(=O)OC)cc2NC1=O (stereo not given),-0.0969
7,Fc1ccccc1-c1nnc2c3ccccc3nc(N3CCOCC3)n12,-0.0489
8,COc1cc(C2C(C#N)=C(N)Oc3n[nH]c(-c4ccncc4)c32)cc(OC)c1OC (stereo not given),-0.208
9,N#Cc1c(/N=C/c2ccccc2)oc(-c2ccccc2)c1-c1ccccc1,-0.119
10,Cc1ccc(C(=O)NC(=S)Nc2ccccc2C(F)(F)F)cc1C,active: 5.48
11,O=C(O)CCN1C(=O)/C(=C/c2ccc(-c3nc4ccccc4s3)o2)SC1=S,1.83
12,Cc1ccc2c(c1)N(C(=O)c1ccco1)C(C)(C)c1ssc(=S)c1-2,-0.788
13,COC(=O)c1nn(-c2ccccc2)c(Cl)c1/C=N/OC(=O)c1ccc(Cl)c(Cl)c1,-0.925
14,CCS(=O)(=O)Nc1ccc(C2=NN(C(=O)c3ccco3)C(c3ccc(C)cc3)C2)cc1 (stereo not given),-0.0281
15,Clc1ccc2[nH]c3c(c2c1)CCc1cn[nH]c1-3,0.0573
16,O=S(=O)(Nc1cccc(CCc2ccccn2)c1)c1ccc2ccccc2c1,-0.324
17,CCNC(=O)CN(c1ccc(C)cc1)S(=O)(=O)c1ccccc1,0.163
18,O=C(c1cc(-c2cccs2)on1)N1CCc2ccccc2C1,-0.343
19,O=C1c2ccccc2C(=O)N1/N=C/c1ccc(O)c(O)c1,-0.492
20,Cc1ccc(NC(=O)CCSc2nnc(C)s2)cc1,-0.0447
21,O=C(Nc1ncc2c(n1)CC(c1ccco1)CC2=O)c1ccccc1 (stereo not given),0.294
22,CC(C)C(=O)Nc1cccc(C(=O)Nc2nnc(C(C)C)s2)c1,-0.551

row,Structure (SMILES),z-score
1,CC(C)(C)c1ccccc1N=Cc1ccc2ccccc2n1,-0.227
2,N/C(=N\OC(=O)Nc1ccccc1)c1ncc(C(F)(F)F)cc1Cl,-0.057
3,O=c1c2ccccc2cnn1Cc1n[nH]c(=S)n1-c1ccccc1Cl,-0.398
4,O=C(NC(=S)Nc1ccc(N2CCCCC2)c(Cl)c1)c1ccc2c(c1)OCCO2,0.126
5,Cc1c(Cl)c([N+](=O)[O-])nn1CC(=O)N1CCc2ccccc2C1,-0.146
6,Cc1[nH]c(=O)[nH]c(=O)c1/C=N/NC(=O)[C@H](CC(C)C)NC(=O)OC(C)(C)C,-0.0717
7,CC(C)(C)c1ccc(C(=O)NC(=S)Nn2cnnc2)cc1,active: 3.11
8,CCNc1ccc(Br)cc(C(=O)/C=C/c2c(Cl)cccc2Cl)c1=O,-0.226
9,COc1ccc(C(C)(C)C)cc1NC(=O)CCCn1c(=O)oc2ccccc21,-0.276
10,CCc1nc2oc3cc(OC)ccc3c(=O)c2c(=O)n1Cc1ccccc1,-0.933
11,COc1ccc(-c2nc(-c3ccccc3)nc(N3CCN(C)CC3)c2C#N)cc1,0.041
12,Cc1nn2cnc3sc4c(c3c2nc1=O)CCCC4,-0.037
13,O=C(Nc1cccc(-c2cn3ccccc3n2)c1)c1cccs1,-0.698
14,N#C/C(=C\c1ccccc1C(F)(F)F)C(=O)Nc1ccccc1F,0.00201
15,CCOC(=O)C(=O)Nc1ccccc1C(=O)Nc1ccc(OC)cc1,-0.261
16,COc1ccc(NC(=O)CC(C)(C)C)c([N+](=O)[O-])c1,-0.0419
17,Cc1cc(C)c2cc(CN(CCN3CCCC3)C(=O)Nc3ccc(F)cc3)c(=O)[nH]c2c1,1.07
18,CN1CCN(c2ccccc2NC(=O)c2ccc(-c3ccc(Cl)cc3Cl)o2)CC1,-0.137
19,Cc1cccc(Nc2nc(-c3c(C)nc4ccccn34)cs2)c1,-0.083
20,Cc1ccc(Nc2ncnc3nc[nH]c23)cc1Cl,0.0994
21,O=C(CN(Cc1ccc2c(c1)OCO2)C(=O)CNS(=O)(=O)c1ccccc1)NCc1ccco1,0.0259
22,CC(C)CNC(=O)NC(=O)COc1ccc(C=O)cc1,0.151

row,Structure (SMILES),z-score
1,O=C(Cn1cc(SCc2ccc(F)cc2)c2ccccc21)N1CCOCC1,0.648
2,CCn1c(SCC(=O)Nc2ncc(C(F)(F)F)cc2Cl)nnc1-c1ccccc1,-0.589
3,Cc1ccccc1C(=O)Nc1ccccn1,0.161
4,COc1cc2cc(C(c3nnnn3C(C)(C)C)N3CCc4ccccc43)c(=O)[nH]c2cc1OC (stereo not given),0.576
5,O=C(CN1C(=O)c2ccccc2S1(=O)=O)N1CCN(c2cccc(Cl)c2)CC1,-0.432
6,CCOc1ccc(CCNC(=O)Cn2c(=O)oc3ccccc32)cc1OCC,-0.173
7,Cc1ccc(C(=O)N2CCOCC2)cc1[N+](=O)[O-],-0.167
8,COC(=O)Cn1c(=NC(=O)C2COc3ccccc3O2)sc2cc(S(N)(=O)=O)ccc21 (stereo not given),-0.375
9,Cc1ccc(CNC(=O)CN2CCCC(C)C2)cc1 (stereo not given),-0.196
10,CS(=O)(=O)c1ccc(C(=O)NC2CCOC2=O)cc1 (stereo not given),0.0914
11,C=CCn1c(CCNC(=O)c2cccs2)nnc1SCC(=O)Nc1cccc(F)c1,-0.147
12,COCCOC(=O)c1[nH]c2c(c1C)C(=O)C(C(=O)OC)C(C)C2 (stereo not given),0.625
13,O=C(CSc1nc2sc3c(c2c(=O)n1-c1ccccc1)CCCC3)NCc1ccco1,-1.75
14,CC1=CC(=O)C(C(C)C)=C/C1=N/OC(=O)c1cccc([N+](=O)[O-])c1,-0.12
15,CC(C)(C)OC(=O)N1CCC[C@H]1c1nnc(SCc2c(Cl)cccc2Cl)o1,-0.145
16,O=C(NC(=S)Nc1nc2c(ccc3ccccc32)s1)c1cccs1,2.78
17,CCOc1ccccc1C1N(c2ccc(OC)cc2)C(=O)C2CCCN21 (stereo not given),-0.342
18,CC1(C)CC(=O)C2=C(C1)N(c1ccc(F)cc1)C(=O)C2(NC(=O)c1ccccc1F)C(F)(F)F (stereo not given),-0.00236
19,O=C1CCCN1CC(O)CS(=O)(=O)c1ccc(Cl)cc1 (stereo not given),-0.78
20,CCCCCn1c(N)c(C#N)c2nc3ccccc3nc21,-0.278
21,CC(C)(C)c1ccc(C(=O)Nc2ccc([N+](=O)[O-])cn2)cc1,-0.401
22,CCCc1noc2c1/C(=N\O)CCC2,0.447

row,Structure (SMILES),z-score
1,Cn1c(SCC(=O)Nc2nc3c(s2)CCCC3)nnc1-c1ccccc1,0.228
2,CN(c1ccccc1)c1ccc(/C=N/N2CCOCC2)cc1,-0.277
3,Cc1ccc(C2C3=C(CCCC3=O)N=C3c4ccccc4C(=O)C32)cc1 (stereo not given),-0.179
4,CC12CCC(c3c(CO)nn(-c4ccccc4)c31)C2(C)C (stereo not given),-0.228
5,Cc1ccccc1S(=O)(=O)Oc1ccccc1C(=O)Oc1ccccc1,-0.188
6,CSc1cc(-c2ccccc2)n(Cc2ccccc2Cl)c(=O)c1C#N,-0.122
7,CC1(C)CC(=O)c2c(oc3cc(O)c(O)cc23)C1,-0.367
8,COc1ccc(CN2CC(C(=O)NCc3ccc4c(c3)OCO4)CC2=O)cc1 (stereo not given),0.0327
9,COc1ccc(C)cc1-n1c(-c2ccncc2)n[nH]c1=S,-0.139
10,COc1cccc(CN(C(=O)c2cc3ccccc3oc2=O)C2CC2)c1,-0.0142
11,Cc1cccc(-c2nnc(SCC#N)n2-c2cccc(Cl)c2)c1,-0.285
12,COC(=O)CSc1nnc(C)n1-c1ccc(C)cc1,-0.293
13,c1coc(-c2nnc(NC3=NCCC3)o2)c1,1.08
14,O=C(CNC(=O)c1ccco1)OCc1cccc(Cl)c1,-0.219
15,COc1ccccc1CNC(=O)C1CCN(Cc2nc(-c3cccc(Cl)c3)oc2C)CC1,-0.328
16,CCCCCCn1c(=O)[nH]c2nc3cc(N)ccc3nc2c1=O,0.456
17,CCCC(=O)Nc1ccccc1-c1nnn(CC(=O)Nc2ccc(OCC)cc2)n1,-0.817
18,CN=Cc1c(NC)nc2c(C)cccn2c1=O,-0.43
19,Cc1cc(C)c(S(=O)(=O)NCCCn2ccnc2)c(C)c1,-0.0574
20,O=C(Nc1ncn[nH]1)c1cc(S(=O)(=O)Nc2ccc(Cl)cc2)ccc1Cl,-0.0295
21,CC(C)NC(=O)c1cc2ccccc2o1,-0.495
22,Cc1nn(-c2ccccc2)c(Cl)c1/C=N\NC(=O)c1cncc(Br)c1,-0.407

row,Structure (SMILES),z-score
1,CC1(C)C2CC=C(/C=N/NC(=O)c3ccc(O)cc3)C1C2 (stereo not given),-0.0642
2,COc1cccc(CNc2nc3ccccc3n2CCN2CCCCC2)c1OC,-0.28
3,COC(=O)c1cc2sccc2n1CC(=O)N1CCCc2ccccc21,2.64
4,CNc1cc(CSC)nc(SCc2ccc(Cl)c(Cl)c2)n1,0.735
5,CN(C)CC(=O)Nc1cc(C(F)(F)F)ccc1Cl,-0.783
6,CCOc1ccc(CCNC(=O)c2cccnc2N2CCCC2)cc1OCC,-0.219
7,CC1CCCC2(C1)NC(=S)N(c1ccccc1)N2 (stereo not given),-0.757
8,CN(Cc1ccccc1)c1nc2c(c(=O)n(C)c(=O)n2C)n1CCCc1ccccc1,1.89
9,COc1nc(NCc2cccnc2)nc(OC)n1,0.145
10,COc1ccc(N2CCN(C(=O)CCCN3C(=O)c4cccc5cccc(c45)C3=O)CC2)cc1,0.249
11,O=C(CSc1nnnn1-c1cccc2c1CCCC2)N1CCCCC1,0.0349
12,CS(=O)(=O)N(CC(=O)N1CCN(Cc2ccc3c(c2)OCO3)CC1)c1ccc2c(c1)OCO2,0.57
13,CCn1nc(C)c(C(=O)Nc2cc(Oc3cc(C)cc(C)c3)cc([N+](=O)[O-])c2)c1C,-0.185
14,CC(=O)Nc1cccc(-c2nc3ccccc3c(=O)o2)c1,-1.25
15,COC(=O)C1=NN(c2cccc(C)c2)C2C(=O)N(c3ccccc3OC)C(=O)C12 (stereo not given),-0.147
16,CC(=O)c1noc(C)c1C(=O)Nc1nccs1,-0.35
17,CC(C)C(NS(=O)(=O)c1cccc2nsnc12)C(=O)NCc1ccc2c(c1)OCO2 (stereo not given),-0.269
18,O=C(COC(=O)CCCN1C(=O)c2cccc3cccc(c23)C1=O)Nc1cccc(Br)c1,0.0456
19,Cc1ccc(C(=O)NNC(=O)CSc2nc(N)cc(N)n2)cc1,-0.067
20,O=C(Cn1cccc1C(=O)c1ccccc1)NCCN1CCCCCC1,-0.499
21,CCOC(=O)C1=C(CNCCc2ccc(Cl)cc2)NC(=O)NC1c1ccc2c(c1)OCO2 (stereo not given),0.268
22,COC(=O)c1ccc(NC(=O)CN(c2ccc3c(c2)OCO3)S(C)(=O)=O)cc1,-0.375
